Reference: paper PMC6919601, “Identification of Plasmodium dipeptidyl aminopeptidase allosteric inhibitors by high throughput screening” (PLoS ONE, 2019)
About 230 (0.21%) of roughly 110,000 compounds showed an effect of 50% or more. Some of the results follow.

target: DPAP1 (Plasmodium falciparum, UniProt Q8IIJ9); test: primary screen, percent inhibition; read by cleavage of a fluorogenic dipeptide substrate; higher = more effect of the substance; set-up: species or system P. falciparum D10 trophozoite lysates; single well
Sequence (Q8IIJ9 whole entry, looked up): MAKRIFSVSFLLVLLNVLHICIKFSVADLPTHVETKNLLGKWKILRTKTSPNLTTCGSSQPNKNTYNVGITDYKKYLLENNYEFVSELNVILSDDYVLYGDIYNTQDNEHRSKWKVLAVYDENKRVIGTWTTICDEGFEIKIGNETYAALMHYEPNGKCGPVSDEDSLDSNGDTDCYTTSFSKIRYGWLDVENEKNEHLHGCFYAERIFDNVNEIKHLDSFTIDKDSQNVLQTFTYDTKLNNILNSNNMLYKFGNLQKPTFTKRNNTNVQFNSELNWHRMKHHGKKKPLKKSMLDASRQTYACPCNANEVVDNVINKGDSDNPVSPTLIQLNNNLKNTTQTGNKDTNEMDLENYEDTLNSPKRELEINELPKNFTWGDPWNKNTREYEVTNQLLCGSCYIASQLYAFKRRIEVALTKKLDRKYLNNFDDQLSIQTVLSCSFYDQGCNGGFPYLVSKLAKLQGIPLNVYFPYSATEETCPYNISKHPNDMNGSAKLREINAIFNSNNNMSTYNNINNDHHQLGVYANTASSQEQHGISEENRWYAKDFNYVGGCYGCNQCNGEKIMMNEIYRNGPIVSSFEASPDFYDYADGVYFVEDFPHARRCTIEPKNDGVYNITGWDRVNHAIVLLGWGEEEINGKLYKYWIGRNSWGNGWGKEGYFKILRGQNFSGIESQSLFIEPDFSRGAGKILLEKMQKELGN
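Also: 30 min substrate incubation versus DMSO and 10 µM JCP410 controls.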

SMILES | % Inhibition @ 10 uM [%]
CC(=O)c1cccc(NS(=O)(=O)c2ccc(Oc3ccccc3Cl)cc2)c1 | -3.87
CCN(C(=O)c1ccccc1OC)c1nc(-c2ccc(Br)cc2)cs1 | 1.75
COc1ccc2c(CNC3CCCC(C)C3C)c(C(=O)O)n(Cc3ccc(F)cc3)c2c1 (stereo not shown) | 8.58
CC(C)/N=C1\SC(CC(=O)Nc2ccc(Br)cc2)C(=O)N1C(C)C (stereo not shown) | 3.86
CC(=O)c1nn(-c2cccc(Br)c2)cc1C(=O)c1ccco1 | -1.89
O=C(O)c1ccc(S(=O)(=O)c2ccc3c(c2)C(=O)N(c2ccccn2)C3=O)cc1 | -2.63
COc1ccc(OC)c(C2C(C#N)=C(N)Oc3cc(C)n(CCN(C)C)c(=O)c32)c1 (stereo not shown) | -1.11
Cc1ccc(S(=O)(=O)C(F)(F)F)cc1[N+](=O)[O-] | -0.833
Cc1cc(C)c2nc(N3CCC(C(=O)NCc4ccc(OC(C)C)cc4)CC3)sc2c1 | 0.0882
CCSc1cnn(-c2ccccc2)c(=O)c1SCC | 0.135
CCN(CC)C1=N/C(=C\c2ccccc2)C(=O)N1c1ccc(C)cc1 | 2.22
C#CCNc1nnc(C)c2nnn(Cc3ccccc3Cl)c12 | 6.34
COc1ccc(C2NC(=O)NC(C)=C2C(=O)Nc2cccc(C)c2C)cc1 (stereo not shown) | -6.25
Cc1ccc2c(c1)c1c(c(=O)n(Cc3ccccc3)c(=O)n1CC(=O)NCC1CCCO1)n2C (stereo not shown) | -3.36
COc1ccccc1S(=O)(=O)Cc1ccc(C(=O)NCCCN2CCOCC2)o1 | 3.77
C=CCOc1ccc(/C=C2\S/C(=N/c3ccc(C(=O)O)cc3)N(C)C2=O)cc1 | -3.39
CCCn1c2ccccc2c2cnn(CC(=O)N3CCN(Cc4ccccc4)CC3)c(=O)c21 | 2.13
CCCCCCCCCCP(=O)(O)c1ccccc1 | 0.467
Cc1cc(OCc2nc3ccccc3s2)ccc1N | -0.279
Cc1ccc(S(=O)(=O)N2CCN(C(=O)CSc3nnnn3-c3ccccc3)C2)cc1 | -1.69
O=C(Nc1cccc(F)c1)/C(=C\c1ccco1)NC(=O)c1ccsc1 | -0.366
COCCn1c(=N)c(C(=O)OC)cc2c(=O)n3ccccc3nc21 | 0.279
CCN(CC)S(=O)(=O)c1ccc(NC(=O)c2ccco2)cc1 | 2.45
Cc1ccc(NC(=O)CSc2ccccn2)cc1 | 2.38
CCOC(=O)c1cc(C(=O)OCC)c(O)nc1C | -5.96

SMILES | % Inhibition @ 10 uM [%]
c1cc2c(cc1NC1C3CC4CC(C3)CC1C4)OCO2 (stereo not shown) | -1.96
CCN1C(=O)/C(=C2/SC(C)=C(C)N2CC)S/C1=N\c1c(C)n[nH]c1C | 4.06
CC(C)(C)N1C(=O)NC(=O)/C(=C/c2ccccc2Cl)C1=O | -0.712
Cc1nc(O)nc(O)c1S(=O)(=O)N1CCC(C(=O)NCCc2ccccc2)CC1 | -2.56
CCSc1nc(-c2cccc(OC)c2)nc2c1Cc1c(CO)cnc(C)c1O2 | 3.54
COc1nc(C)nc(NC(=O)NS(=O)(=O)Nc2ccc([N+](=O)[O-])cc2)n1 | 1.42
O=C1N/C(=C/c2cc(Br)cs2)C(=O)N1Cc1ccccc1F | -3.63
CCc1ccc(OCC(=O)N(Cc2nc(-c3ccc(Cl)cc3)no2)C(C)C)cc1 | -5.91
CCOC(=O)c1c(NC(=O)c2ccncc2)sc2c1CC(C)(C)OC2 | 0.484
CC(=O)N1CCC2(CC1)OC(=O)C(C)=C2C(=O)NC(C)CCc1ccccc1 (stereo not shown) | -1.31
Cc1ccc(C(=O)Nc2cccc(C(O)c3ccccc3)c2)cc1 (stereo not shown) | -0.891
CCN(CC)CCNC(=O)C1=Cc2sc(C)c(C)c2CS1 | 19.4
O=C1c2ccccc2C(=O)C1(CCO)c1ccccc1 | -1.8
CCOc1cc(S(=O)(=O)NCCc2c(C)[nH]c3c(C)cccc23)ccc1F | 2.72
COc1ccc(N(CC(=O)Nc2ccc3c(c2)OCO3)S(C)(=O)=O)cc1OC | -6.24
CCc1nc2ccccc2n1CC(O)COc1ccccc1OC (stereo not shown) | 1.25
CC(=O)c1ccc(NC(=O)c2ccc(C(C)(C)C)cc2)cc1 | 0.324
COc1cccc(N2CCN(C3CC(=O)N(c4cccc(C)c4)C3=O)CC2)c1 (stereo not shown) | -8.02
c1coc(CNCCc2c[nH]c3ccccc23)c1 | 0.673
COc1ccccc1[C@@H](C)C[C@H](NC(=O)c1ccc(OC(F)(F)F)cc1)C(=O)NCC#N | -4.82
CCOC(=O)C1=C(CS(=O)(=O)c2ccc(F)c(Cl)c2)NC(=O)NC1c1ccccc1OCC (stereo not shown) | 12.8
Cc1cc2n(n1)SC(NC(C)c1ccccc1)N2 (stereo not shown) | 2.65
N#CCNC(=O)C1(NC(=O)c2ccc(-c3ccc(-c4ccno4)cc3)cc2)CCCCC1 | -1.41
Cc1ccc(C(=O)Cn2c3ccccc3n3nc(CCC(=O)O)c(=O)nc23)cc1 | -0.865
CCSc1nnc2c(=O)[nH]c(=O)[nH]c2n1 | -4.75

SMILES | % Inhibition @ 10 uM [%]
CC(=O)Nc1ccc(/C=C2\SC(=O)N(CC(=O)O)C2=O)cc1 | -4.86
O=C(NC1CCCCC1)C1CC(c2ccccc2F)=NO1 (stereo not shown) | 7.39
CC(C)CN1C(=O)c2ccccc2C(C(=O)N2CCN(c3ccccn3)CC2)C1c1cccs1 (stereo not shown) | -0.539
Cc1ccc(NC(=O)CN(c2ccccc2F)S(=O)(=O)c2ccccc2)cc1 | 3.66
CN(Cc1ccccc1)c1nc2c(S(=O)(=O)c3ccccc3)nnn2c2ccc(Cl)cc12 | 3.26
Cc1ccc(OCC(=O)N(Cc2nc(-c3ccc(Cl)cc3)no2)C(C)C)cc1 | -3.06
CCN(CC)CCN(CC)Cc1cc(F)ccc1F | 4.32
CCCCNC(=O)CNC(=S)N(Cc1ccccc1)Cc1ccccc1F | 4.47
COc1ccc(OC)c(Nc2ccc3ccccc3n2)c1 | 1.84
Cc1cc2ccccc2c(=O)n1CC(=O)NCC(=O)N1CCN(C)CC1 | -1.2
Cn1cccc1Cc1nnc(SCC(=O)NCc2ccc3c(c2)OCO3)n1-c1ccccc1 | -1.3
CCN(C(=O)c1cc2c(=O)n3cccc(C)c3nc2n1C)c1ccccc1 | 2.76
COc1ccc(CSc2nc3ccccc3[nH]2)cc1 | -0.053
COc1ccccc1OCC(=O)N(Cc1nc(-c2ccccc2)no1)C1CCCCC1 | 2.14
CN1CCC(N(C)C2CCN(CCc3ccccc3)CC2)CC1 | -3.6
Cc1ccsc1/C=C(/C#N)c1nc(C2CC2)cs1 | 7.49
CN1CCN(C(=O)c2cccc(Br)c2)CC1 | -0.261
C=CCN1C(=O)C(O)=C(C(=O)c2ccc(C)cc2)C1c1ccc(C)cc1 (stereo not shown) | 0.992
COc1cc2c(cc1OC)C(C(=O)NCC1CCCO1)C(c1cccnc1)N(C)C2=O (stereo not shown) | -3.79
Cc1ccc(C(=O)Nc2cccc3ccccc23)o1 | -1.38
COc1ccccc1C(=O)OCCNC1=NS(=O)(=O)c2ccccc21 | 6.76
CCn1c(C(O)c2ccccc2OC)nc2ccccc21 (stereo not shown) | 3.61
Cc1ccccc1NC(=O)c1ccc(Br)cc1 | -0.856
Cc1c(C(=O)NCCC2=CCCCC2)oc2ccc3c(c12)C(=O)CC(C)(C)O3 | -5.15
Cc1cc(S(=O)(=O)Nc2noc3ccccc23)ccc1F | 0.569

SMILES | % Inhibition @ 10 uM [%]
CCOC(=O)c1[nH]c2ccccc2c1NC(=O)c1ccc(S(=O)(=O)N(C)C)cc1 | -5.77
O=C(c1ccc(F)cc1)n1cnc2ccccc21 | 0.486
COc1ccc(NC(=S)NC(=O)c2ccccc2Cl)cc1 | 1.35
CNC(=O)c1ccc2[nH]c(C)c(C)c2c1 | 0.0489
Cc1ccc2[nH]c(-c3ccc(NC(=O)C(C)(C)C)cc3)nc2c1 | -1.89
CCOC(=O)C1CCN(Cc2cccc(OC)c2)CC1 | -3.56
CCc1cc2c(=O)c(-c3nc(C)cs3)c(C(=O)O)oc2cc1O | 2.31
O=C(c1ccoc1)N1CCN(c2nn3nnnc3c3ccccc23)CC1 | -2.7
O=S(=O)(c1ccc(Cl)cc1)N1CCc2ccccc21 | -0.856
Cc1ccc(C)c(NC(=O)C2CCC(C)(C(=O)O)C2(C)C)c1 (stereo not shown) | -1.89
Cc1ccc(N2CC(C(=O)Nc3ccc(C)c(Cl)c3)CC2=O)cc1 (stereo not shown) | 5.04
O=C(NCc1ccccc1)c1cnccn1 | 39.3
COc1cc(OC)c(C2C(C#N)=C(N)Oc3cc(N)ccc32)cc1Br (stereo not shown) | 4.66
CCOC(=O)c1c(NC(=O)CSc2nnc(-c3cc(C)on3)o2)sc(C)c1C | 5.93
Fc1ccccc1-n1ncc2c1ncn1nc(-c3ccc(Cl)cc3Cl)nc21 | -1.11
CN(Cc1ccccc1)C(=O)c1ccc(Cl)c([N+](=O)[O-])c1 | 2.46
O=S(=O)(c1ccc(Cl)c(Cl)c1Cl)N1CCN(Cc2ccccc2)CC1 | 2.8
Cc1ccc(-c2c(C(=O)N3CCC(C)CC3)oc(=O)c3ccccc23)cc1 | -1.54
COc1cc(/C=C(/C#N)c2nc(-c3ccc4c(c3)OCO4)cs2)ccc1O | -0.305
Cn1c(=O)[nH]c(=O)c2c1nc(NCCCn1ccnc1)n2CCCc1ccccc1 | -1.47
CCOc1c([N+](=O)[O-])cc2c(C)c(C(=O)N3CCN(C)CC3)oc2c1OCC | 1.8
O=C(COc1ccc(Cl)cc1Cl)N1CCc2ccccc21 | 10.9
O=C(NCCC1=CCCCC1)c1ccc2c(c1)OCO2 | 2.95
CCOC(=O)CC1(O)CCOC(C)(C)C1 (stereo not shown) | 0.132
Cc1cccc(NC(=O)c2onc3c2CCCC3)c1C | -8.73
